{"source": "PubChem BioAssay AID686978", "about": "(National Center for Advancing Translational Sciences (NCATS), 2013)", "note": "Hit rate of the full screen: of about 420,000 compounds, about 64,000 (15%) were called active. This list was built around the results that the source calls inconclusive (neither active nor inactive); the mix of calls is not that of the screen. Calls come from the whole dose curve; as a rule, active = well fitted inhibition curve with a large enough effect; inconclusive = small, poorly fitted or top-dose-only effect; inactive = flat fitted curve, though single readings scatter. Potencies of inconclusive entries are left out as doubtful fits. Potency is the fitted concentration of half-maximal effect; tags give direction and shape of the fitted curve.", "data": [{"test": "qHTS for Inhibitors of human tyrosyl-DNA phosphodiesterase 1 (TDP1): qHTS in cells in absence of CPT; note: nearly all actives have a fitted effect of over 55% in size", "conditions": "DT40 Tdp1-/- hTDP1 cells, no CPT, ATP luminescence, 48 h; series mostly up to 46.2 µM", "procedure,_shortened": "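Seeded 400 DT40-hTDP1 cells/well (vehicle DMSO, no 20 nM CPT); pinned compounds; ≥48 hr at 37 °C; CellTiter-Glo luminescence as viability measure.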", "values": [{"smiles": "CCN(C(=O)COc1cc(=O)n(C)c2ccccc12)c1cccc(C(F)(F)F)c1", "Potency": "inconclusive [inhibitor, single point]"}, {"smiles": "Cc1nn(-c2ccccc2)c(C)c1C(=O)OCC(=O)N1CCN(S(=O)(=O)c2ccccc2)CC1", "Potency": "inconclusive [inhibitor, partial curve]"}, {"smiles": "Cc1ccccc1CN1CCc2nc(Nc3ccc4c(c3)OCCO4)ncc2C1", "Potency": "active: 20.6 µM"}, {"smiles": "Cc1ccc(NC(=O)CC2NCCNC2=O)cc1Cl", "note": "(stereo not given)", "Potency": "inactive"}, {"smiles": "CCOc1ccc(CCNC(=O)c2ccc(CS(=O)(=O)Cc3ccccc3Cl)o2)cc1OCC", "Potency": "active: 23.1 µM"}, {"smiles": "COc1cccc(OCC(=O)Nc2ccncc2)c1", "Potency": "inconclusive [inhibitor, single point]"}, {"smiles": "COc1ccc(S(=O)(=O)N2CCOCC2)cc1C(=O)N(C)Cc1ccco1", "Potency": "inactive"}, {"smiles": "OCCNCCO", "Potency": "inactive"}, {"smiles": "CN(CC(=O)Nc1ccccc1Cl)C(=O)CCSc1ccc(F)cc1", "Potency": "inconclusive [inhibitor, partial curve]"}, {"smiles": "COc1ccc(C=NNC(=O)CCCCC(=O)NN=Cc2ccc(OC)cc2)cc1", "Potency": "inconclusive [inhibitor, single point]"}, {"smiles": "O=C(CN1CCN(Cc2ccccc2F)C1=O)NC1CCCC1", "Potency": "inactive"}, {"smiles": "CN(C(=O)CSc1nnc(Cc2ccccc2F)n1N)C1CCS(=O)(=O)C1", "note": "(stereo not given)", "Potency": "inactive"}, {"smiles": "S=c1[nH]nc(Cc2ccccc2)n1-c1ccccc1", "Potency": "inactive"}, {"smiles": "C=C(C)CC1(NC(C)c2ccccc2)CCCCC1", "note": "(stereo not given)", "Potency": "inconclusive [inhibitor, single point]"}, {"smiles": "COC(=O)C1=C(C)N(Cc2ccco2)C(=O)N[C@H]1c1cccc(C(F)(F)F)c1", "Potency": "inconclusive [inhibitor, single point]"}, {"smiles": "O=C(CNC(=O)c1ccccc1F)OCC(=O)N1CCCc2ccccc21", "Potency": "inactive"}, {"smiles": "O=C(Nc1nc(-c2ccco2)c(-c2ccco2)s1)c1ccc(F)cc1F", "Potency": "inconclusive [inhibitor, single point]"}, {"smiles": "Cc1cccc(C)c1NC(=O)CN1CCN(c2ccc(C(F)(F)F)cn2)CC1", "Potency": "active: 11.6 µM"}, {"smiles": "CCOC(=O)CC1CCCCN1Cc1nc(-c2ccc(F)c(OC)c2)oc1C", "note": "(stereo not given)", "Potency": "inconclusive [inhibitor, single point]"}, {"smiles": "CCCC(=O)c1ccc(N2CCN(S(=O)(=O)c3ccccc3)CC2)c(F)c1", "Potency": "inconclusive [inhibitor, partial curve, poor fit]"}, {"smiles": "O=C(Nc1ccc2c(c1)OCCO2)C1c2ccccc2OCC(=O)N1Cc1cccnc1", "note": "(stereo not given)", "Potency": "inactive"}, {"smiles": "C=CCNC(=O)C(C)Sc1ccc(Cl)cc1", "note": "(stereo not given)", "Potency": "inconclusive [inhibitor, single point]"}, {"smiles": "Cc1cc(C(F)F)nn1CC(=O)Nc1cc([N+](=O)[O-])ccc1F", "Potency": "inactive"}, {"smiles": "O=C(COc1ccccc1[N+](=O)[O-])NNC(=O)Nc1cccc2ccccc12", "Potency": "inconclusive [inhibitor, single point]"}, {"smiles": "COc1ccccc1CCC(=O)OCC(=O)Nc1ccc(C(N)=O)cc1", "Potency": "inactive"}, {"smiles": "Cn1cccc1C(=O)NCc1ccccn1", "Potency": "inactive"}, {"smiles": "O=C(NNC(=O)c1ccc2ccccc2c1O)c1cccs1", "Potency": "inconclusive [inhibitor, partial curve]"}, {"smiles": "O=C(O)Cn1c2ccccc2c2n[nH]c(=S)nc21", "Potency": "inactive"}, {"smiles": "N#C/C(=C\\c1ccc(OCCN2CCOCC2)cc1)C(=O)Nc1ccccc1", "Potency": "inactive"}, {"smiles": "CC(C)(C)c1ccc(S(=O)(=O)CCc2ccccn2)cc1", "Potency": "inconclusive [inhibitor, single point]"}, {"smiles": "O=C(c1cc2c(=O)[nH]c3ccccc3c2s1)N1CCN(c2ccc(F)cc2)CC1", "Potency": "inconclusive [inhibitor, single point]"}, {"smiles": "CC(C)CCNc1ncnc2c1nnn2Cc1ccccc1Cl", "Potency": "inactive"}, {"smiles": "O=C(NN=C1CCCC1)c1cc(-c2ccc(F)cc2)nc2ccccc12", "Potency": "inconclusive [inhibitor, partial curve]"}, {"smiles": "COC(=O)c1ccccc1NC(=O)N1CCN(S(C)(=O)=O)CC1", "Potency": "inactive"}, {"smiles": "O=C(CS(=O)(=O)c1ccccc1)Nc1nccs1", "Potency": "inactive"}, {"smiles": "CCOc1ccc(C(=O)Nc2ccc(-c3nc4cc(CC)ccc4o3)cc2)cc1", "Potency": "inconclusive [inhibitor, full curve]"}, {"smiles": "Cc1ccccc1CN(C)CC(=O)Nc1cccc(S(=O)(=O)N(C)c2ccccc2)c1", "Potency": "active: 16.4 µM"}, {"smiles": "CC(OC(=O)c1ccc2ncsc2c1)C(=O)N(C)C1CCCCC1", "note": "(stereo not given)", "Potency": "inconclusive [inhibitor, single point]"}, {"smiles": "Cc1ccc(S(=O)(=O)CCC(=O)N(CCCN2CCOCC2)c2nc3ccccc3s2)cc1", "Potency": "active: 2.91 µM"}, {"smiles": "Cc1cccc(NC(=O)N2CCCCCC2)c1C", "Potency": "inactive"}, {"smiles": "C[C@@H]1CN([C@@H](C)CO)C(=O)c2cc(NC(=O)C3CCCCC3)ccc2O[C@@H](C)CCCCO[C@H]1CN(C)S(=O)(=O)c1ccc(Cl)cc1", "Potency": "inconclusive [inhibitor, partial curve, poor fit]"}, {"smiles": "COc1cccc2c1Oc1nc(-c3ccccc3)nc(SCC(=O)N3CCCCC3)c1C2", "Potency": "inconclusive [inhibitor, single point]"}, {"smiles": "CC(=O)N[C@@H](Cc1c[nH]c2ccccc12)C(=O)OCc1cc(C(F)(F)F)cc(C(F)(F)F)c1", "Potency": "inactive"}, {"smiles": "Cc1nc(SCC(=O)NC2CC2)c2c(C)c(C)sc2n1", "Potency": "inconclusive [inhibitor, partial curve]"}, {"smiles": "CCC(C)CCN1C(Nc2ccccc2)=NC[C@@H]1CC(C)C", "note": "(stereo not given in full)", "Potency": "active: 16.4 µM"}, {"smiles": "C=CCOC(=O)N1CCN(c2cccc(C(F)(F)F)c2)CC1", "Potency": "inconclusive [inhibitor, partial curve, poor fit]"}, {"smiles": "Cn1c(=O)n(C)c2cc(N3CCCCC3)c(NC(=O)c3ccccc3)cc21", "Potency": "inconclusive [inhibitor, single point]"}, {"smiles": "Cn1c(=O)c2c(SCC(=O)N3CCN(c4ccccc4)CC3)nc(C3CC3)nc2n(C)c1=O", "Potency": "active: 7.31 µM"}, {"smiles": "COc1ccccc1NC(=O)Cn1c(=O)n(Cc2ccccc2)c(=O)c2ccccc21", "Potency": "inconclusive [inhibitor, partial curve]"}, {"smiles": "COC(=O)c1ccc(NC(=O)Nc2nnc(N(C)C3CCCCC3)s2)cc1", "Potency": "inconclusive [inhibitor, single point]"}, {"smiles": "C=CCn1c(SCCOc2ccc(OC)cc2)nnc1C(NC(=O)c1ccc(OC)cc1)C(C)C", "note": "(stereo not given)", "Potency": "inconclusive [inhibitor, single point]"}, {"smiles": "COc1cc2cc(C)c3nnc(SCC(=O)Nc4cc(C)on4)n3c2cc1OC", "Potency": "inconclusive [inhibitor, single point]"}, {"smiles": "S=C(NCc1ccccc1)Nc1cccc2cnccc12", "Potency": "active: 18.4 µM"}, {"smiles": "O=c1[nH]c(Cc2ccc(F)cc2)nc2scc(-c3ccc(F)cc3)c12", "Potency": "active: 25.9 µM"}, {"smiles": "Cc1coc2c(C)c3oc(=O)c(CC(=O)N4CCCCC4)c(C)c3cc12", "Potency": "inconclusive [inhibitor, single point]"}, {"smiles": "Cc1cc(OCC(=O)OCC(=O)Nc2cc(C(F)(F)F)ccc2N2CCOCC2)ccc1Cl", "Potency": "inactive"}, {"smiles": "CCc1c(C(C)S(=O)(=O)c2ccc(C)cc2)[nH]c(=O)n1-c1ccc(C)cc1", "note": "(stereo not given)", "Potency": "active: 29.1 µM"}, {"smiles": "COc1ccc(S(=O)(=O)Nc2cccc3c2O[C@H](CN(C)C(=O)NC(C)C)[C@@H](C)CN([C@H](C)CO)C3=O)cc1", "Potency": "inactive"}, {"smiles": "CCCc1cc(=O)oc2c(C)c(OCC(=O)Nc3cccnc3)ccc12", "Potency": "inactive"}, {"smiles": "Cc1cccc(NC(=O)CN(C)C(=O)c2ccc(N3CCCCCC3)c([N+](=O)[O-])c2)c1C", "Potency": "active: 18.4 µM"}, {"smiles": "CC1CCN(C(=O)COc2cccc3c2CCN(Cc2ccccc2)C3=O)CC1", "Potency": "inconclusive [inhibitor, partial curve]"}, {"smiles": "C=CCC1(C#N)C(=S)NC(C)=C(C(=O)OCC)C1c1ccccc1", "note": "(stereo not given)", "Potency": "active: 29.1 µM"}, {"smiles": "Nc1nnc(SCC(=O)OCc2ccc(Cl)c(Cl)c2)s1", "Potency": "inconclusive [inhibitor, single point]"}, {"smiles": "CC(C)c1nc(SCC(=O)c2c[nH]c3ccccc23)n[nH]1", "Potency": "inactive"}, {"smiles": "COc1cc(CNCCNC(=O)c2nonc2N)ccc1OCc1ccc(Cl)nc1", "Potency": "inconclusive [inhibitor, single point]"}, {"smiles": "CCN(C(=O)CSc1nnc(NC2CCCCC2)s1)C1CCS(=O)(=O)C1", "note": "(stereo not given)", "Potency": "inactive"}, {"smiles": "O=C1C=C(c2ccc(F)c(Cl)c2)C[C@@H](c2ccc(F)cc2)C1", "Potency": "inconclusive [inhibitor, single point]"}, {"smiles": "CC1CCN(c2ccc(NC(=S)NC(=O)c3ccco3)cc2)CC1", "Potency": "inconclusive [inhibitor, partial curve, poor fit]"}, {"smiles": "Cc1nc2ccccc2n1CSc1ccccc1", "Potency": "inconclusive [inhibitor, partial curve, poor fit]"}, {"smiles": "Cc1nc2nc(C)c(NS(=O)(=O)c3cccs3)c(=O)n2[nH]1", "Potency": "inactive"}, {"smiles": "COc1ccc(-c2nc3nc(C)cc(Nc4ccc(C(C)=O)cc4)n3n2)cc1", "Potency": "active: 14.6 µM"}, {"smiles": "COc1ccc(C2(C)NC(=O)N(CC(=O)Nc3c(C)n(C)n(-c4ccccc4)c3=O)C2=O)cc1", "note": "(stereo not given)", "Potency": "inactive"}, {"smiles": "CSc1ccccc1OCc1cc(C(=O)NCCC2CCCCO2)no1", "note": "(stereo not given)", "Potency": "inconclusive [inhibitor, single point]"}, {"smiles": "Cc1ccc(C(=O)C(C)OC(=O)C2CCN(c3ccc(C(F)(F)F)cn3)CC2)cc1C", "note": "(stereo not given)", "Potency": "inconclusive [inhibitor, single point]"}, {"smiles": "COC(OC)C12c3ccccc3C(c3ccccc31)C1C(=O)N(c3cccnc3)C(=O)C12", "note": "(stereo not given)", "Potency": "inactive"}]}]}
